From PMC6451091
The list shows a part of the results. For part of these data: At the low end of the ranking, values are background and their order means little. For part of these data: Measured with an extract: partners may take part in the binding.

Tests used:
Details in all cases: 20 mM HEPES pH 7.9, 100 mM NaCl, 1 mM DTT, 0.2 mg/mL BSA, 0.02% Triton X-100, 2% milk, 0.4 mg/mL salmon testes DNA; 1 h; temperature not stated; high values mean tight binding; double strand, one strand shown; sequences stand for … in GCCTAGCAC…GTGCTAGGTCTTGATTCGCTTGACGCTGCTG
PU.1 (IVT) = PU.1 (IVT) (UniProt P17947); assay: protein-binding microarray (PBM)
[1] = biological target: PU.1 (endogenous, THP-1 nuclear extract) (UniProt P17947); assay: nuclear extract protein-binding microarray (nextPBM)
[2] = biological target: T1, FLI1 (endogenous, THP-1 nuclear extract) (UniProt Q01543); assay: as above
T1 sequence: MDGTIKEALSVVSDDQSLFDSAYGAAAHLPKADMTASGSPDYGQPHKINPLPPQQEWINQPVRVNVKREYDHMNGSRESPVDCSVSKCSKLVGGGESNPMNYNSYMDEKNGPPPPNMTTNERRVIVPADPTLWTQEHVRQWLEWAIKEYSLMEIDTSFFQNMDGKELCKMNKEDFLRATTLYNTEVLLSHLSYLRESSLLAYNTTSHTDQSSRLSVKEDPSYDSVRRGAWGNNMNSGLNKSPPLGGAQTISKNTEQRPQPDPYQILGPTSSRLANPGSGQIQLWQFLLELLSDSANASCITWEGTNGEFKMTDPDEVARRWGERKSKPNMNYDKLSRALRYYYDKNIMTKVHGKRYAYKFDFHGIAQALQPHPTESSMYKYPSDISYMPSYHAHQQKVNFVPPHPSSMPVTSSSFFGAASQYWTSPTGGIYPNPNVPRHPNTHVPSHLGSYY

Sequence | binding signal (PU.1 (IVT)) [z-score] | binding signal [1] [z-score] | binding signal [2] [z-score]
GAAGACAGGAAGTAGCCTTT | 3.85 | 3.65 | 4.61
ACAATGGAGAAGTGTCTGGG | 2.01 | 2.55 | -0.581
GAAAAGAGGAAGTCATACTA | 8.06 | 7.39 | 4.04
AAAAACAGGAAGTCACAATA | 7.53 | 7.13 | 4.67
AAAAACAGGAAGTGGAGATG | 7.69 | 7.45 | 5.3
CAAGTGAGGAACTGATGCGG | 2.17 | 1.87 | 0.54
CCAAAGGGGAAGTGGCTTGT | 5.85 | 6.46 | 2.91
TTGAAGAGGAAGTCTTAGAG | 4.05 | 4.02 | 2.58
GAAAAAAGGAAGTTGCACAG | 6.42 | 6.47 | 3.11
TATTAGAGGAACTGCCAGTT | 3.09 | 2.62 | 0.996
AGAATGAGGAACTGTGTCCC | 5.43 | 6.2 | 1.54
TGAGTAGGGAAGTGTTCCTT | 3.11 | 3.01 | 1.19
GAAAAGAGGAAGTCAAATTG | 8.37 | 7.29 | 3.85
GATGAAGGGAAGTGGAGAAA | 2.6 | 2.43 | 1.57
ACAAAAACGAACTGTGCCCC | -0.339 | -0.132 | 0.0928
GAAAAGAGGAAGTCAAACTC | 8.12 | 7.23 | 3.79
CTTTAGAGGAACTCCCTGCC | 1.94 | 2.61 | 0.6
AAAAAAAGGAAGTGGAATTA | 6.73 | 6.64 | 3.14
CAGAAGAGGAAGTGGTGAGG | 6.33 | 6.58 | 3.47
GAAAAGAGGAAGTAGGATAA | 8.46 | 7.27 | 4.13
GGAAAGAGGAAGTGCAACCA | 8.07 | 7.34 | 4.54
GAGAAGAGGAAGTGGACTGA | 6.37 | 6.57 | 3.6
CAAAAGAGGAACTGATGCGG | 6.77 | 6.93 | 2.5
TAGAGGAGGAAGTGCAAACC | 3.94 | 4.33 | 2.68
GGAAAGGGGAAGTGACTGCT | 7.55 | 7.19 | 3.45

Sequence | binding signal (PU.1 (IVT)) [z-score] | binding signal [1] [z-score] | binding signal [2] [z-score]
GATAAGAGGAATTCCTCTGT | 1.24 | 0.778 | 0.479
TGGCAGGGGAAGTGCTTTGC | 3.19 | 3.04 | 1.72
TAATAGAGGAACTGAAAATA | 4.27 | 4.58 | 1.51
AAAATGAGGAAGTGGAAGGG | 8.15 | 7.35 | 3.82
GAAATGGGGAAGTGGCCAGG | 6.49 | 6.89 | 2.68
AGAAAGAGGAAATGACCTAT | 5.8 | 6.42 | 3.37
AGAAAGAGGAAGTCAAACCA | 7.76 | 7.21 | 4.15
GAAGTAGGGAAGTGGTTTAA | 4 | 3.31 | 1.24
GAAAAGGAGAACTGCATCTT | 3.49 | 3.44 | 0.625
GCAATGAGGAACTGGAGTCT | 3.85 | 4.15 | 0.886
ACAAAAAGGTACTGTGCCCC | 0.32 | 0.164 | -0.672
AAAAAGAGGAAGTCTTTTAT | 8.71 | 7.64 | 4.72
CGAAAGGGGAAGCGCTAAAC | 4.66 | 5.18 | 1.77
ATAAAGAGGAAGTGGGTATG | 7.65 | 7.19 | 4.04
GGACTAAGGAAGTGATAGAA | 2.85 | 2.41 | 2.01
AAGAGGAGGAAGTGGAAGGG | 4.25 | 4.43 | 2.57
AGAAAGAGGAAGTTGGCTCT | 8.56 | 7.36 | 4.1
TAGGAGGGGAAGTGGGACCC | 3.32 | 3.25 | 1.79
CGAAAGGGGAAGTGCTAAAC | 6.93 | 7.05 | 3.52
TAAATGGGGAAGTCACATAT | 6.17 | 6.6 | 2.4
ACAATAGGGAAGTGATGGTG | 5.26 | 5.83 | 1.91
GGAAAGGGGAAGTGTGCCAT | 7.33 | 7.02 | 3.39
CAAATGAGGAACTGCTGCGG | 5.83 | 6.07 | 2.62
TGAAAGGGGAAGTGCTACAC | 6.96 | 6.91 | 3.38
TAAATGGGGAAGTGCTTGAC | 6.87 | 6.71 | 2.81

Sequence | binding signal (PU.1 (IVT)) [z-score] | binding signal [1] [z-score] | binding signal [2] [z-score]
TTGAGGAGGAAGTGGGGTCT | 3.8 | 4.2 | 2.78
GGGAAGGGGAAGTGAGGAGT | 4.95 | 5.62 | 2.54
TGGATCAGGAAGTGGTTTCC | 3.32 | 3.62 | 3.63
GAAAGAGGGAAGTGGGTGCC | 4.85 | 5.52 | 1.97
AGGAAGTGGAAGTGGGAGGA | 2.81 | 2.62 | 5.54
GGAAAGAGGAAGTCAAAAAT | 7.85 | 7.24 | 3.86
AGAGAGAGGAAGTGCCAGAC | 4.05 | 4.36 | 2.61
AGGAAGAGGAAGTGCTCTGG | 6.41 | 6.63 | 4.04
AGAAACAGGAAGTACTGTGG | 7.84 | 7.22 | 4.91
TAAAAGAGGAACAGAGAGGA | 4.09 | 4.73 | 1.23
CTAAAGAGGAACTGTCTGAA | 4.65 | 5.01 | 1.68
AAATTAGGGAAGTGTAACCA | 6.06 | 6.35 | 2.17
CCAAGGGGGAAGTGGGAGGA | 3.4 | 4.26 | 2.02
CAAAAGGGGAAGTCGGGCGG | 7.32 | 7.05 | 3.15
GATAAGAGGAAGTACTCTGT | 7.44 | 6.76 | 3.35
ACAAAGGGGAAGTGGAAGAA | 6.15 | 6.62 | 2.63
AAGGAGAGGAAGTGACTGAT | 4.78 | 4.47 | 2.99
CTAAAGGGGAAGTGCTAAAC | 6.12 | 6.57 | 2.81
AAAAAAAGGAACTGGCCAGA | 4.2 | 4.37 | 1.38
GGAAAGAGGAAGTGGCAAGA | 7.75 | 7.09 | 4.11
GAATTGAGGAAGTGCAGAAG | 6.21 | 6.66 | 3.54
CAGAAGAGGAAGTGCTAACT | 6.68 | 6.78 | 3.68
TCAAAGAGGAACTGATACCT | 4.99 | 5.31 | 2
TAAATGAGGAAATGGGAGCT | 4.39 | 4.62 | 1.98
GAAAACAGGAAGTCCCATCG | 7.4 | 6.92 | 4.55

Sequence | binding signal (PU.1 (IVT)) [z-score] | binding signal [1] [z-score] | binding signal [2] [z-score]
GATTTGAGGAAGTGGGGGAA | 6.86 | 6.74 | 3.58
ACAAAAAGGAACTGGCTAGA | 2.26 | 1.99 | 0.762
CAAATGAGGAGCTGATGCGG | -0.502 | -0.111 | -0.371
AGCAGGAGGAAGTGTGGGGG | 3.47 | 3.72 | 2.27
ATAAAGAGGAAGTGAAGCCA | 7.27 | 7.06 | 3.7
CAAATGAGGAAGTGGAGTCA | 7.9 | 7.26 | 4.27
CAAATGAGGAACTGATGCGT | 6.08 | 6.39 | 2.31
ACAAAAAGGAACTCTGCCCC | 1.86 | 1.41 | 0.674
AAAAAGAGGAAGTCAAACTA | 8.48 | 7.34 | 4.13
GGGAAGAGGAAGTGGGGACG | 5.48 | 6.22 | 3.19
ACAACAAGGAACTGTGCCCC | 1.7 | 1.18 | 0.122
GGAAGGGGGAAGTGGGCCAG | 4.38 | 4.98 | 2
TGGGAGAGGAAGTGATGAGC | 4.01 | 4.16 | 2.72
AAAAAGAGGAACTCGAATTA | 7.11 | 7.24 | 2.39
AAGAAGGGGAAGTGGAAACC | 5.65 | 6.46 | 2.89
GAGGAGGGGAACTGAGAGCA | 1.39 | 1.44 | 0.249
GAAAAGAGGAAGTCAAACCA | 8.22 | 7.48 | 3.92
GCCTAGAGGAAGTGGGCAAT | 3.32 | 3.16 | 2.49
GAAAAAGGGAACTGGTTGGG | 5.22 | 5.92 | 1.75
ACAAAGGGGAAGTGCTAGGG | 6.35 | 6.49 | 2.75
AAAAAGAGGAAGTGACTTCA | 8.34 | 7.35 | 4.29
GGAAGGAGGAAGTAAGCTGC | 5.58 | 6.22 | 2.89
TGAATGAGGAAGTGCAACCA | 6.31 | 6.97 | 2.72
CAAATGAGGAAATGTGGCTT | 3.55 | 3.88 | 1.77
